The list shows a part of the results.
B1: PhoQ; a variant is named by its letters at X, in order, P23837 (parent)
chain: MKKLLRLFFPLSLRVRFLLATAAVVLVLSLAYGMVALIGYSVSFDKTTFRLLRGESNLFYTLAKWENNKLHVELPENIDKQSPTMTLIYDENGQLLWAQRDVPWLMKMIQPDWLKSNGFHEIEADVNDTSLLLSGDHSIQQQLQEVREDDDDAEMTHSVAVNVYPATSRMPKLTIVVVDTIPVELKSSYMVWSWFIYVLSANLLLVIPLLWVAAWWSLRPIEALAKEVRELEEHNRELLNPATTRELTSLVRNLNRLLKSERERYDKYRTTLTDLTHSLKTPLXXLQXXLRSLRSEKMSVSDAEPVMLEQISRISQQIGYYLHRASMRGGTLLSRELHPVAPLLDNLTSALNKVYQRKGVNISLDISPEISFVGEQNDFVEVMGNVLDNACKYCLEFVEISARQTDEHLYIVVEDDGPGIPLSKREVIFDRGQRVDTLRPGQGVGLAVAREITEQYEGKIVAGESMLGGARMEVIFGRQHSAPKDE

Variants of: B1
Assay: enrichment ratio after two sorts for PhoP signalling (ratio (wild type AVST 3.29)); higher = more functional
Details: with PhoP (E. coli)

Row | Variant | enrichment ratio
1 | GCPL | ≤ 0.25
2 | DEMQ | ≤ 0.25
3 | ITNG | ≤ 0.25
4 | MFWA | ≤ 0.25
5 | NIML | 6.63
6 | QMID | ≤ 0.25
7 | MDPN | ≤ 0.25
8 | QQAS | ≤ 0.25
9 | NFLP | ≤ 0.25
10 | MSIE | ≤ 0.25
11 | AQSS | 11.7
12 | DHHK | ≤ 0.25
13 | WKVH | ≤ 0.25
14 | GDCK | ≤ 0.25
15 | SLGF | 10.1
16 | QSKL | ≤ 0.25
17 | LHRS | ≤ 0.25
18 | WEMF | ≤ 0.25
19 | VDME | ≤ 0.25
20 | GLYK | ≤ 0.25
21 | VYLG | ≤ 0.25
22 | LKNM | ≤ 0.25
23 | EHVK | ≤ 0.25
24 | VDNW | ≤ 0.25

Row | Variant | enrichment ratio
25 | QTIK | ≤ 0.25
26 | VLSH | ≤ 0.25
27 | NMQV | ≤ 0.25
28 | NWHT | ≤ 0.25
29 | TYQL | 2.61
30 | PSHR | ≤ 0.25
31 | GWIP | ≤ 0.25
32 | SMQK | ≤ 0.25
33 | EEMY | ≤ 0.25
34 | GRCE | ≤ 0.25
35 | KKRF | ≤ 0.25
36 | DCQN | ≤ 0.25
37 | VENM | ≤ 0.25
38 | NMFT | ≤ 0.25
39 | ISME | ≤ 0.25
40 | RSWP | ≤ 0.25
41 | EHNP | ≤ 0.25
42 | WELM | 17.4
43 | EPLL | ≤ 0.25
44 | MRGF | ≤ 0.25
45 | WMMH | ≤ 0.25
46 | GHRV | ≤ 0.25
47 | GMKA | ≤ 0.25
48 | MCAR | ≤ 0.25

Row | Variant | enrichment ratio
49 | WHPP | ≤ 0.25
50 | HNRC | ≤ 0.25
51 | VRFN | ≤ 0.25
52 | QSTT | ≤ 0.25
53 | QSGA | 0.764
54 | ARSN | ≤ 0.25
55 | FAQE | ≤ 0.25
56 | AVGY | 2.53
57 | YWRN | ≤ 0.25
58 | PIWQ | ≤ 0.25
59 | CYWK | ≤ 0.25
60 | FYGL | ≤ 0.25
61 | MRYY | ≤ 0.25
62 | KESW | ≤ 0.25
63 | YNAN | ≤ 0.25
64 | DHSR | ≤ 0.25
65 | VGDH | ≤ 0.25
66 | SFIP | ≤ 0.25
67 | FCFN | ≤ 0.25
68 | RYCY | ≤ 0.25
69 | HKMR | ≤ 0.25
70 | QQDL | ≤ 0.25
71 | SMEW | ≤ 0.25
72 | GAVS | ≤ 0.25

Row | Variant | enrichment ratio
73 | FTVS | ≤ 0.25
74 | FCGN | ≤ 0.25
75 | VRSV | ≤ 0.25
76 | ASKR | ≤ 0.25
77 | IDTL | ≤ 0.25
78 | YTDS | ≤ 0.25
79 | RHDR | ≤ 0.25
80 | FDTC | ≤ 0.25
81 | ENFQ | ≤ 0.25
82 | IYSY | ≤ 0.25
83 | LVEH | ≤ 0.25
84 | RNNR | ≤ 0.25
85 | PNSR | ≤ 0.25
86 | LIVD | ≤ 0.25
87 | SSRF | ≤ 0.25
88 | DISH | ≤ 0.25
89 | VRWP | ≤ 0.25
90 | DMYV | ≤ 0.25
91 | DTME | ≤ 0.25
92 | DILT | ≤ 0.25
93 | GSER | ≤ 0.25
94 | DPWT | ≤ 0.25
95 | AFGE | ≤ 0.25
96 | MSCQ | 1.67

Row | Variant | enrichment ratio
97 | LCYE | ≤ 0.25
98 | LEWD | ≤ 0.25
99 | YDGP | ≤ 0.25
100 | WSPF | ≤ 0.25
101 | WNTM | ≤ 0.25
102 | VNFR | ≤ 0.25
103 | VRHC | ≤ 0.25
104 | CFLC | ≤ 0.25
105 | MQTL | ≤ 0.25
106 | VHWW | ≤ 0.25
107 | RCWL | ≤ 0.25
108 | PRAA | ≤ 0.25
109 | PFPR | ≤ 0.25
110 | SNTT | 3.46
111 | RRSR | ≤ 0.25
112 | AMMV | 21.8
113 | GHAC | ≤ 0.25
114 | HLQF | ≤ 0.25
115 | KSMI | ≤ 0.25
116 | QFLA | ≤ 0.25
117 | YAIK | ≤ 0.25
118 | VGCT | ≤ 0.25
119 | FSRK | ≤ 0.25
120 | LEVT | ≤ 0.25

Row | Variant | enrichment ratio
121 | QEEG | ≤ 0.25
122 | GLVR | ≤ 0.25
123 | LQTA | ≤ 0.25
124 | VNDR | ≤ 0.25
125 | EQFL | ≤ 0.25
126 | RKGA | ≤ 0.25
127 | NLPY | ≤ 0.25
128 | AFLF | 0.946
129 | NMND | ≤ 0.25
130 | VDMA | ≤ 0.25
131 | ETFS | ≤ 0.25
132 | YQWR | ≤ 0.25
133 | DDRD | ≤ 0.25
134 | VPIV | ≤ 0.25
135 | MVIG | ≤ 0.25
136 | RQPI | ≤ 0.25
137 | YRGF | ≤ 0.25
138 | NQYD | ≤ 0.25
139 | VIMG | ≤ 0.25
140 | EHLV | ≤ 0.25
141 | HPRN | ≤ 0.25
142 | VMRM | ≤ 0.25
143 | GSEF | 2.41
144 | TECI | 2.38

Row | Variant | enrichment ratio
145 | MRSG | ≤ 0.25
146 | FEMD | ≤ 0.25
147 | LCTN | ≤ 0.25
148 | NRVH | ≤ 0.25
149 | GHKN | ≤ 0.25
150 | NSRN | ≤ 0.25
151 | INII | ≤ 0.25
152 | PLIQ | ≤ 0.25
153 | FYGC | ≤ 0.25
154 | QHYQ | ≤ 0.25
155 | NKWY | ≤ 0.25
156 | IGRE | ≤ 0.25
157 | EGMT | ≤ 0.25
158 | VSVF | ≤ 0.25
159 | SGGH | 4.82
160 | FDPQ | ≤ 0.25
161 | VIDS | ≤ 0.25
162 | GDYD | 3.11
163 | LKSF | ≤ 0.25
164 | LWIP | ≤ 0.25
165 | PMGR | 0.412
166 | AFYR | ≤ 0.25
167 | QEPS | ≤ 0.25
168 | DFRW | ≤ 0.25

Row | Variant | enrichment ratio
169 | FRQK | ≤ 0.25
170 | NELF | ≤ 0.25
171 | NGCH | ≤ 0.25
172 | GITM | 10.3
173 | STGS | 7.29
174 | DLVN | ≤ 0.25
175 | KMRW | ≤ 0.25
176 | SRAE | ≤ 0.25
177 | INSQ | ≤ 0.25
178 | MYRG | ≤ 0.25
179 | DMWL | ≤ 0.25
180 | LGVT | ≤ 0.25
181 | SHYH | ≤ 0.25
182 | ISQA | ≤ 0.25
183 | SRVN | ≤ 0.25
184 | ICNI | ≤ 0.25
185 | DPPK | ≤ 0.25
186 | ETVR | ≤ 0.25
187 | WMHF | ≤ 0.25
188 | IASD | ≤ 0.25
189 | FWEF | ≤ 0.25
190 | NLML | ≤ 0.25
191 | VWHW | ≤ 0.25
192 | VVCG | ≤ 0.25

Row | Variant | enrichment ratio
193 | TQAM | 25.5
194 | LEGK | ≤ 0.25
195 | LQPP | ≤ 0.25
196 | ANSC | 11.9
197 | ICFT | ≤ 0.25
198 | KEWL | ≤ 0.25
199 | RHMY | ≤ 0.25
200 | ICPW | ≤ 0.25
201 | LKMY | ≤ 0.25
202 | WEVL | ≤ 0.25
203 | SYKL | ≤ 0.25
204 | ESHA | ≤ 0.25
205 | TSEG | ≤ 0.25
206 | DTNP | ≤ 0.25
207 | GPIT | ≤ 0.25
208 | WDNQ | ≤ 0.25
209 | ASLY | 13.9
210 | EHAS | ≤ 0.25
211 | FEEY | ≤ 0.25
212 | KCLV | ≤ 0.25
213 | HFAY | ≤ 0.25
214 | RQNH | ≤ 0.25
215 | KFKM | ≤ 0.25
216 | AIPR | ≤ 0.25

Row | Variant | enrichment ratio
217 | SNLR | 3.15
218 | DWFE | ≤ 0.25
219 | EDDC | ≤ 0.25
220 | ENIF | ≤ 0.25
221 | MLKH | ≤ 0.25
222 | VCQR | ≤ 0.25
223 | HMMP | ≤ 0.25
224 | HFVC | ≤ 0.25
225 | QICC | ≤ 0.25
226 | FSMM | 4.33
227 | IEEL | ≤ 0.25
228 | QTNF | 2.39
229 | ASFF | ≤ 0.25
230 | EHYL | ≤ 0.25
231 | YDKD | ≤ 0.25
232 | VRTD | ≤ 0.25
233 | ELFG | ≤ 0.25
234 | PHNI | ≤ 0.25
235 | RYWD | ≤ 0.25
236 | EPIV | ≤ 0.25
237 | WAWF | ≤ 0.25
238 | FSTD | ≤ 0.25
239 | FPQN | ≤ 0.25
240 | DDDR | ≤ 0.25

Row | Variant | enrichment ratio
241 | IDCG | ≤ 0.25
242 | RRNW | ≤ 0.25
243 | IILE | ≤ 0.25
244 | LTAL | ≤ 0.25
245 | ILDE | ≤ 0.25
246 | IERA | ≤ 0.25
247 | WNIG | ≤ 0.25
248 | RNRH | ≤ 0.25
249 | VKTA | ≤ 0.25
250 | PMVI | ≤ 0.25
251 | LRPM | ≤ 0.25
252 | RNDD | ≤ 0.25
253 | HNDQ | ≤ 0.25
254 | DGIS | ≤ 0.25
255 | LDNR | ≤ 0.25
256 | LWHQ | ≤ 0.25
257 | PERV | ≤ 0.25
258 | TARS | ≤ 0.25
259 | LIGY | ≤ 0.25
260 | NDVT | ≤ 0.25
261 | LEIQ | ≤ 0.25
262 | HVSW | ≤ 0.25
263 | PTMC | ≤ 0.25
264 | PRIW | ≤ 0.25

Row | Variant | enrichment ratio
265 | GSRQ | ≤ 0.25
266 | YLPS | ≤ 0.25
267 | WLQD | ≤ 0.25
268 | LRST | ≤ 0.25
269 | HMHE | ≤ 0.25
270 | FDII | ≤ 0.25
271 | RKAA | ≤ 0.25
272 | YTSW | ≤ 0.25
273 | RRDE | ≤ 0.25
274 | ECGL | ≤ 0.25
275 | YKLS | ≤ 0.25
276 | GSNW | ≤ 0.25
277 | ENVD | ≤ 0.25
278 | VWAA | ≤ 0.25
279 | ENTW | ≤ 0.25
280 | RAIV | ≤ 0.25
281 | QNNG | ≤ 0.25
282 | QTIW | ≤ 0.25
283 | KIGW | ≤ 0.25
284 | YDAD | ≤ 0.25
285 | PYGN | ≤ 0.25
286 | LWIN | ≤ 0.25
287 | PRIQ | ≤ 0.25
288 | VVFQ | ≤ 0.25

Row | Variant | enrichment ratio
289 | IAGM | ≤ 0.25
290 | EFDY | ≤ 0.25
291 | LDSF | ≤ 0.25
292 | MYNL | ≤ 0.25
293 | ATYP | ≤ 0.25
294 | PLHA | ≤ 0.25
295 | HDYH | ≤ 0.25
296 | MCFC | ≤ 0.25
297 | KPGS | ≤ 0.25
298 | WVHP | ≤ 0.25
299 | WWVL | ≤ 0.25
300 | VRTN | ≤ 0.25
301 | SFIE | ≤ 0.25
302 | YFGR | ≤ 0.25
303 | HKME | ≤ 0.25
304 | IIWR | ≤ 0.25
305 | YRTK | ≤ 0.25
306 | FANN | ≤ 0.25

Source: a collection of fitness landscapes (doi:10.1126/science.1257360)
